Several values for one entry are separate records, joined by “and”; a condition that tells them apart may be missing. Identical values can stand only once. The source gives many values for each of these; only a part stands here.
Assays:
[1] = xn = mol fraction of the nth substance listed
[2] = 101 kPa

NCC(=O)O + O
[1]
Details	viscosity
298 K, 101 kPa, x1 = 0.0004	0.8837 mPa·s
298 K, 101 kPa, x1 = 0.001	0.8937 mPa·s
298 K, 101 kPa, x1 = 0.0018	0.8965 mPa·s
298.15 K, 100 kPa, x1 = 0.005954	0.9158 mPa·s
298.15 K, 100 kPa, x1 = 0.006751	0.9191 mPa·s
298.15 K, 101 kPa, x1 = 9e-05	0.8973 mPa·s
298.15 K, 101 kPa, x1 = 0.00018	0.9052 mPa·s
298.15 K, 101 kPa, x1 = 0.0009	0.8943 mPa·s
298.15 K, 101 kPa, x1 = 0.00135	0.897 mPa·s
298.15 K, 101 kPa, x1 = 0.0018	0.8997 mPa·s
298.15 K, 101 kPa, x1 = 0.002198	0.9055 mPa·s
298.15 K, 101 kPa, x1 = 0.002695	0.9054 mPa·s
298.15 K, 101 kPa, x1 = 0.0029	0.9155 mPa·s
298.15 K, 101 kPa, x1 = 0.0032	0.918 mPa·s
298.15 K, 101 kPa, x1 = 0.00359	0.916 mPa·s
298.15 K, 101 kPa, x1 = 0.0036	0.9222 mPa·s
298.15 K, 101 kPa, x1 = 0.004484	0.922 mPa·s
298.15 K, 101 kPa, x1 = 0.006266	0.935 mPa·s
303.15 K, 100 kPa, x1 = 0.003486	0.8125 mPa·s
303.15 K, 100 kPa, x1 = 0.004323	0.8159 mPa·s
303.15 K, 100 kPa, x1 = 0.005145	0.8191 mPa·s
303.15 K, 100 kPa, x1 = 0.005954	0.8223 mPa·s
303.15 K, 101 kPa, x1 = 9e-05	0.8038 mPa·s
303.15 K, 101 kPa, x1 = 0.00018	0.8102 mPa·s
303.15 K, 101 kPa, x1 = 0.00027	0.8166 mPa·s
303.15 K, 101 kPa, x1 = 0.00036	0.823 mPa·s
303.15 K, 101 kPa, x1 = 0.0004	0.801 mPa·s
303.15 K, 101 kPa, x1 = 0.0007	0.803 mPa·s
303.15 K, 101 kPa, x1 = 0.0009	0.8012 mPa·s
303.15 K, 101 kPa, x1 = 0.001	0.805 mPa·s
303.15 K, 101 kPa, x1 = 0.00135	0.8037 mPa·s
303.15 K, 101 kPa, x1 = 0.0018	0.81 mPa·s
303.15 K, 101 kPa, x1 = 0.002695	0.8118 mPa·s
303.15 K, 101 kPa, x1 = 0.0032	0.824 mPa·s
303.15 K, 101 kPa, x1 = 0.0036	0.8279 mPa·s and 0.814 mPa·s
303.15 K, 101 kPa, x1 = 0.0072	0.837 mPa·s
303.15 K, 101 kPa, x1 = 0.011	0.854 mPa·s
303.15 K, 101 kPa, x1 = 0.014	0.877 mPa·s
308.15 K, 100 kPa, x1 = 0.002636	0.7307 mPa·s
308.15 K, 100 kPa, x1 = 0.005954	0.7437 mPa·s
308.15 K, 101 kPa, x1 = 9e-05	0.7253 mPa·s
308.15 K, 101 kPa, x1 = 0.00036	0.7361 mPa·s
308.15 K, 101 kPa, x1 = 0.001	0.725 mPa·s and 0.728 mPa·s
308.15 K, 101 kPa, x1 = 0.00135	0.7252 mPa·s
308.15 K, 101 kPa, x1 = 0.0018	0.7277 mPa·s
308.15 K, 101 kPa, x1 = 0.0036	0.7497 mPa·s
308.15 K, 101 kPa, x1 = 0.011	0.781 mPa·s
308.15 K, 101 kPa, x1 = 0.014	0.8 mPa·s
308.15 K, 101 kPa, x1 = 0.0177	0.819 mPa·s
313.15 K, 100 kPa, x1 = 0.002636	0.6644 mPa·s
313.15 K, 100 kPa, x1 = 0.003486	0.6677 mPa·s
313.15 K, 100 kPa, x1 = 0.004323	0.6709 mPa·s
313.15 K, 100 kPa, x1 = 0.005145	0.674 mPa·s
313.15 K, 100 kPa, x1 = 0.005954	0.6771 mPa·s
313.15 K, 101 kPa, x1 = 9e-05	0.6597 mPa·s
313.15 K, 101 kPa, x1 = 0.00018	0.6671 mPa·s
313.15 K, 101 kPa, x1 = 0.00027	0.6744 mPa·s
313.15 K, 101 kPa, x1 = 0.00036	0.6816 mPa·s
313.15 K, 101 kPa, x1 = 0.001	0.66 mPa·s and 0.659 mPa·s
313.15 K, 101 kPa, x1 = 0.00135	0.6586 mPa·s
313.15 K, 101 kPa, x1 = 0.0018	0.662 mPa·s
313.15 K, 101 kPa, x1 = 0.0029	0.677 mPa·s
313.15 K, 101 kPa, x1 = 0.0032	0.679 mPa·s
313.15 K, 101 kPa, x1 = 0.0036	0.6823 mPa·s and 0.67 mPa·s
313.15 K, 101 kPa, x1 = 0.011	0.709 mPa·s
313.15 K, 101 kPa, x1 = 0.014	0.725 mPa·s
313.15 K, 101 kPa, x1 = 0.0177	0.742 mPa·s
318.15 K, 100 kPa, x1 = 0.000893	0.6003 mPa·s
318.15 K, 100 kPa, x1 = 0.00177	0.6036 mPa·s
318.15 K, 100 kPa, x1 = 0.002636	0.6068 mPa·s
318.15 K, 100 kPa, x1 = 0.003486	0.6099 mPa·s
318.15 K, 100 kPa, x1 = 0.005145	0.6161 mPa·s
318.15 K, 100 kPa, x1 = 0.005954	0.6191 mPa·s
318.15 K, 100 kPa, x1 = 0.006751	0.6221 mPa·s
318.15 K, 101 kPa, x1 = 0.0007	0.6 mPa·s
318.15 K, 101 kPa, x1 = 0.0009	0.6007 mPa·s
318.15 K, 101 kPa, x1 = 0.001	0.604 mPa·s and 0.605 mPa·s
318.15 K, 101 kPa, x1 = 0.0018	0.605 mPa·s and 0.6053 mPa·s
318.15 K, 101 kPa, x1 = 0.002245	0.6076 mPa·s
318.15 K, 101 kPa, x1 = 0.002695	0.6099 mPa·s

CC(O)CO (configuration not stated) + CS(C)=O
[1], 318.15 K, 100 kPa
Details	viscosity [mPa·s]
x1 = 0.3056	2.51
x1 = 0.356	2.78
x1 = 0.4064	3.1
x1 = 0.4566	3.44
x1 = 0.5066	3.83
x1 = 0.5565	4.3
x1 = 0.6063	4.86
x1 = 0.6556	5.52
x1 = 0.7055	6.29
x1 = 0.7549	7.22
x1 = 0.8042	8.39
x1 = 0.8533	9.77
x1 = 0.9024	11.5
x1 = 0.9512	13.5

CC(O)CO (configuration not stated) + O
[1]
Details	viscosity [mPa·s]
303.15 K, 101.3 kPa, x1 = 0.0256	1.078
303.15 K, 101.3 kPa, x1 = 0.0559	1.507
303.15 K, 101.3 kPa, x1 = 0.0921	2.137
303.15 K, 101.3 kPa, x1 = 0.1363	3.025
303.15 K, 101.3 kPa, x1 = 0.1914	4.28
303.15 K, 101.3 kPa, x1 = 0.262	5.795
303.15 K, 101.3 kPa, x1 = 0.3558	8.282
303.15 K, 101.3 kPa, x1 = 0.4863	12.92
303.15 K, 101.3 kPa, x1 = 0.6806	20.32
308.15 K, 101.3 kPa, x1 = 0.0256	0.971
308.15 K, 101.3 kPa, x1 = 0.0559	1.315
308.15 K, 101.3 kPa, x1 = 0.0921	1.823
308.15 K, 101.3 kPa, x1 = 0.1363	2.526
308.15 K, 101.3 kPa, x1 = 0.1914	3.52
308.15 K, 101.3 kPa, x1 = 0.262	4.918
308.15 K, 101.3 kPa, x1 = 0.3558	6.955
308.15 K, 101.3 kPa, x1 = 0.4863	10.16
308.15 K, 101.3 kPa, x1 = 0.6806	15.53
313 K, 101 kPa, x1 = 0.1	1.8
313 K, 101 kPa, x1 = 0.3	4.3
313 K, 101 kPa, x1 = 0.5	8.8
313 K, 101 kPa, x1 = 0.7	13.5
313 K, 101 kPa, x1 = 0.9	18.1
313.15 K, 101 kPa, x1 = 0.077	1.379
313.15 K, 101 kPa, x1 = 0.141	2.217
313.15 K, 101 kPa, x1 = 0.2339	3.608
313.15 K, 101 kPa, x1 = 0.3197	5.038
313.15 K, 101 kPa, x1 = 0.4041	6.565
313.15 K, 101 kPa, x1 = 0.4702	7.857
313.15 K, 101 kPa, x1 = 0.5285	9.022
313.15 K, 101 kPa, x1 = 0.6463	11.55
313.15 K, 101 kPa, x1 = 0.6737	12.15
313.15 K, 101 kPa, x1 = 0.8015	15.03
313.15 K, 101 kPa, x1 = 0.8695	16.61
313.15 K, 101 kPa, x1 = 0.9378	18.12
313.15 K, 101.3 kPa, x1 = 0.0256	0.862
313.15 K, 101.3 kPa, x1 = 0.0559	1.16
313.15 K, 101.3 kPa, x1 = 0.0921	1.588
313.15 K, 101.3 kPa, x1 = 0.1363	2.163
313.15 K, 101.3 kPa, x1 = 0.1914	2.965
313.15 K, 101.3 kPa, x1 = 0.262	4.074
313.15 K, 101.3 kPa, x1 = 0.3558	5.677
313.15 K, 101.3 kPa, x1 = 0.4863	8.165
313.15 K, 101.3 kPa, x1 = 0.6806	12.35
318.15 K, 101.3 kPa, x1 = 0.0256	0.772
318.15 K, 101.3 kPa, x1 = 0.0559	1.025
318.15 K, 101.3 kPa, x1 = 0.0921	1.377
318.15 K, 101.3 kPa, x1 = 0.1363	1.851
318.15 K, 101.3 kPa, x1 = 0.1914	2.501
318.15 K, 101.3 kPa, x1 = 0.262	3.4
318.15 K, 101.3 kPa, x1 = 0.3558	4.68
318.15 K, 101.3 kPa, x1 = 0.4863	6.641
318.15 K, 101.3 kPa, x1 = 0.6806	9.8
323.15 K, 101 kPa, x1 = 0.0399	0.817
323.15 K, 101 kPa, x1 = 0.0501	0.889
323.15 K, 101 kPa, x1 = 0.0598	0.967
323.15 K, 101 kPa, x1 = 0.07	1.045
323.15 K, 101 kPa, x1 = 0.08	1.129
323.15 K, 101 kPa, x1 = 0.0899	1.211
323.15 K, 101 kPa, x1 = 0.1	1.299

CCCC[n+]1ccn(C)c1.N#C[C-](C#N)C#N
[2]
Details	viscosity [mPa·s]
298.15 K	27.32
308.15 K	18.45
318.15 K	13.21
